# In all, about 360,000 compounds went through this assay and about 2,600 (0.72%) were called active. The shares of active, inactive and inconclusive entries below differ from those in the screen. The call rests on the fitted dose curve; in most records, active means well fitted inhibition curve with a large enough effect; inconclusive means small, poorly fitted or top-dose-only effect; inactive means no such curve, though single readings can be large or run the other way. Potencies beside an inconclusive call are fits to weak or partial responses and may not hold up.
# Assay: Primary qHTS for Inhibitors of ATXN expression; further: nearly all actives have a fitted effect of over 55% in size
# Conditions: HEK-293 ATXN2-luciferase reporter, luminescence, 24 h; activity change, negative = inhibition: at 57 µM (top of the series)
# In short: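 ATXN2-luciferase reporter cells (luciferase flanked by upstream and downstream ATXN2 gene portions) were treated 24 h at 37 °C with compounds at up to 57 uM. SteadyGlo luminescence gave expression; GF-AFC fluorescence gave viability.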
# On the % scale 0 is the no-effect control and ±100 the full control effect; potency means the concentration at half of the fitted maximal effect; tags describe the fitted curve by direction and shape.
Structure (SMILES),"activity change, negative = inhibition",Potency
CCOC(=O)C1=C(C)N=c2s/c(=C\c3ccc(OCC(=O)O)cc3)c(=O)n2C1c1ccccc1 (stereo not drawn),inactive: 0.385%,
CCCCNC(=S)N(CCN(C)C)Cc1cc2cc3c(cc2[nH]c1=O)OCCO3,,"inconclusive: 22.4 µM [inhibitor, partial curve, poor fit]"
O=C(NC(c1ccc(Cl)cc1)c1cc(Cl)c2cccnc2c1O)c1cccnc1 (stereo not drawn),,"inconclusive: 20 µM [inhibitor, partial curve, poor fit]"
CCc1nc2ccc(C(=O)NCCCn3ccnc3)cn2c1N(C)Cc1ccc(N(C)C)cc1,inactive: 2.72%,
Cc1cc(C)cc(OCC(=O)Nc2ccc(Cl)c(-c3nc4ncccc4o3)c2)c1,,"inconclusive: 0.112 µM [inhibitor, full curve, poor fit]"
COc1cc2c(Oc3ccc(NC(=O)C4(C(=O)Nc5ccc(F)cc5)CC4)cc3F)ccnc2cc1OCCCN1CCOCC1,,active: 27.3 µM
CCOc1ccc2[nH]c3c(N4CCN(c5ccccn5)CC4)ncnc3c2c1,,"inconclusive: 15.8 µM [inhibitor, partial curve, poor fit]"
COc1ccc(OC)c(Nc2cc(C)nc3ccccc23)c1,,"inconclusive: 17.8 µM [inhibitor, partial curve, poor fit]"
Cc1ccc2nc(SCC(=O)NCc3ccccc3)nc(=O)n2c1,,"inconclusive: 3.55 µM [inhibitor, single point]"
CCN(CC)c1ccc(-c2n[nH]c(=S)n2-c2ccccc2)cc1,inactive: -33.4%,
O=C(Cc1ccc(S(=O)(=O)N2CCOCC2)s1)Nc1ccc(Br)c(C(F)(F)F)c1,,"inconclusive: 39.8 µM [inhibitor, partial curve, poor fit]"
O=C(NCc1cccnc1)NC1(C(F)(F)F)Oc2ccc(Cl)cc2O1 (stereo not drawn),,"inconclusive: 15.8 µM [inhibitor, partial curve]"
COc1ccc(O)c(/C=N/NC(=O)CCC(=O)Nc2cccc(C)c2)c1,,"inconclusive: 20 µM [inhibitor, partial curve, poor fit]"
O=C(N/N=C\c1cc(Cl)ccc1O)c1ccc(S(=O)(=O)N2CCCCC2)cc1,,active: 2.51 µM
CCC(=O)N1CCN(c2ccc(Cl)cc2NC(=O)Cc2ccc(Cl)cc2)CC1,,"inconclusive: 39.8 µM [inhibitor, single point]"
CCOc1cc(NC(=O)c2ccco2)c(OCC)cc1NC(=O)COc1ccccc1,,"inconclusive: 25.1 µM [inhibitor, single point]"
Cc1ccc(-c2noc(CCC(=O)NCCCN3CCN(c4ccc(F)cc4)CC3)n2)cc1,,"inconclusive: 15.8 µM [inhibitor, partial curve, poor fit]"
CC(=O)CC1OC(=O)C(Br)=C1NCc1ccccc1 (stereo not drawn),,"inconclusive: 39.8 µM [inhibitor, single point]"
CCOC(=O)C1(CCOc2ccccc2)CCN(Cc2ccc(OCCO)cc2)CC1,inactive: -5.36%,

Structure (SMILES),"activity change, negative = inhibition",Potency
CCCCNc1c(-c2ccc(SC3CCCCC3)c(OC)c2)nc2ccc(C)cn12,,"inconclusive: 28.2 µM [inhibitor, single point]"
COc1cc(NC(=O)c2cccc(F)c2)ccc1NC(=O)c1cc2ccccc2o1,,"inconclusive: 8.44 µM [inhibitor, partial curve, poor fit]"
O=C(Nc1ccc(Cl)c(Cl)c1)Nc1nnc(CSc2ccccc2)s1,,"inconclusive: 12.6 µM [inhibitor, partial curve, poor fit]"
CC(=O)Nc1cc(C(=O)N2CCCC2)ccc1Sc1ccc(Cl)cc1,inactive: -4.26%,
CC1CCN(CCCNC(=O)c2ccc3c(Cl)c4c(nc3c2)CCCC4)CC1,,"inconclusive: 25.1 µM [inhibitor, single point]"
COc1ccccc1NC(=O)N(Cc1ccco1)Cc1cc2ccc(C)c(C)c2[nH]c1=O,,"inconclusive: 8.91 µM [inhibitor, partial curve, poor fit]"
COc1cc2c(C#CCCO)c(-c3ccsc3)oc(=O)c2cc1OC,,"inconclusive: 22.4 µM [inhibitor, partial curve, poor fit]"
COc1ccc(S(=O)(=O)N2c3ccccc3OCC2C)cc1 (stereo not drawn),,"inconclusive: 0.377 µM [inhibitor, full curve, poor fit]"
COc1ccc(OC)c(C2C3=C(N=c4s/c(=C\c5cccc(O)c5)c(=O)n42)c2ccccc2CC3)c1 (stereo not drawn),,"inconclusive: 39.8 µM [inhibitor, single point]"
COC(=O)c1ccc2nc(-c3ccc4c(c3)OCO4)cn2c1,,"inconclusive: 15 µM [inhibitor, single point]"
COc1ccc(-n2c(CCc3ccccc3)nnc2SCC(=O)c2ccc(Cl)cc2)cc1,,"inconclusive: 15.8 µM [inhibitor, partial curve, poor fit]"
Cc1ccc(NC(=S)N/N=C/c2ccc([N+](=O)[O-])s2)cc1,,"inconclusive: 31.6 µM [inhibitor, single point]"
O=C(CN(C1CC1)S(=O)(=O)c1ccc(S(=O)(=O)N2CCCCCC2)cc1)Nc1ccccc1,,"inconclusive: 25.1 µM [inhibitor, partial curve, poor fit]"
C=CC[C@H](CC(=O)N(CCO)Cc1ccccc1)C(=O)NC[C@H](OC(=O)[C@@H](CC=C)CC(=O)OC(C)(C)C)c1ccccc1,,"inconclusive: 39.8 µM [inhibitor, single point]"
Cc1ccc(OCC(=O)Nc2ccc(S(=O)(=O)N(C)C3CCN(C)CC3)cc2)c(C)c1,,"inconclusive: 12.6 µM [inhibitor, partial curve, poor fit]"
O=C(CN1C(=O)c2ccccc2S1(=O)=O)c1ccccc1F,,active: 7.94 µM
FC(F)(F)c1cc(-c2ccc(Cl)cc2)nc(NCc2cccnc2)n1,,"inconclusive: 22.4 µM [inhibitor, single point]"
CC(C=CC1=C(C)CCCC1(C)C)=CC=CC(C)=CC(=O)Nc1ccc(O)cc1,,active: 49.8 µM
COc1ccc(N2CCN(CCCNC(=O)c3cc(Nc4ccccc4OC)nc4ccccc34)CC2)cc1,,"inconclusive: 35.5 µM [inhibitor, single point]"
